Data published in the supplement of paper PMC11417369.
The list shows a part of the results.

tested on: PF3D7_0420300 AP2 domain 1 (GST-tagged); test: gcPBM binding intensity (ln(normalized median fluorescence intensity)); higher = stronger DNA binding
Method in brief: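 An Agilent 4 × 180k array of primer-extended double-stranded 36-bp intergenic genomic probes, with negative controls, was incubated for 1 h with GST-tagged P. falciparum DNA-binding domains expressed in E. coli. Alexa488 anti-GST antibody detected bound protein, scanned at 488 nm. Binding intensity is the highest Masliner-normalised natural-log median intensity across replicate spots of either probe orientation.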

Sequence | gcPBM binding intensity (ln)
TATAAAAAAATATTATAATATATATATATATATATA [XGTACX_negctrl_site41] | 8.99
AATATTTATATTTACACACACATAATACATCTATGT [CACACA_site4187] | 9.91
TATAAATAAAGATATACACACATATAAATATTTTTC [CACACA_site7798] | 9.5
TTGGTCTTTTAAAAAAGTACAAAAAAAAAAAAAAAA [XGTACX_site1665] | 8.5
TTTTAATTTATTAATTGTACATGTATTTTAAGATTA [XGTACX_site8417] | 9
TTATTATTAAAAAAAAGTACAGAATTGAATAATACA [XGTACX_site651] | 9.23
ATTTTTGTGTATTAATGTACTTTATGCATATTTGAC [XGTACX_site3353] | 9.5
TAAACATTTGGCTGATGTACTTGCTACCTTAAATCA [XGTACX_site5514] | 9.1
TATTTTTATAAGTAAAAGGAGCACAGTTAAAGGATC [XGTACX_negctrl_site362] | 9.72
TTTATAAAAATGAACACACACATATAAATATAAATA [CACACA_site7607] | 9.91
TTTTAAATATGAACATGTACATGTAAATTTACATGT [XGTACX_site4573] | 9.07
AATAATATATTTAGGGGTACATAATAATATATTTTA [XGTACX_site8366] | 9.27
AAAAATAGAATAAATACACACCCGTGTAACGGATTT [CACACA_site3372] | 9.45
ATTAAATACATTAACACACACACAAATATATACATA [CACACA_site2881] | 10.1
AATAATAATACTAATCGTACGCATATTTTTCAAACC [XGTACX_site8055] | 9.36
CATTTAACATAAATTAAACACACAATATAATACATT [CACACA_site8333] | 9.54
AAAGATAAAATATTATGTACATATATATATATATAT [XGTACX_site5079] | 9.09
TATAAAAAAAACAAAAAAAAAAAAAAACAAAAAAAA [TGCATGCA_negctrl_site514] | 9.44
TTTTTTTGTTGTTGTTGTACGATATTTTCCTTATCA [XGTACX_site2375] | 9.61
TGTATAAAAGTTTATACACACATTTGATATATTTCA [CACACA_site6606] | 9.24
TTTTATTTTTATTATACACACGCTTAATAAATGCAT [CACACA_site1751] | 9.29
GGGAATATAAGTACACGATAATATGTGATAAGGTCT [CACACA_negctrl_site1502] | 9.5

Sequence | gcPBM binding intensity (ln)
GGGGGGATGAGATATTGTACTTTTTAGGAAAGTGTA [XGTACX_site2835] | 10
AAAAAAAAGTTAAGCACACACATGAATAAATAATAC [CACACA_site840] | 9.89
CCTAGAAAAGTATATACACACGCGCAAAATAAAATT [CACACA_site1413] | 9.7
TTAACCGGTTTATGGGTGCACATTCTTCTTAAATAA [GTGCAC_site9928] | 9.13
CATGTTCATCAGAACGCACACATAATGGTTTACTTA [CACACA_site898] | 9.39
AAGAAAAAAAAAATTACACACTGCGCACATACACAA [CACACA_site6721] | 9.82
ACTTATATAAAACATTAACACACAAAGAAAAAAAAT [CACACA_site8529] | 9.96
GATACACCAAATAACTGTACGCACGTGTAATATTAA [XGTACX_site3441] | 9.29
GTGTATATGTATATATGTACATAAATTTTTTTTTTT [XGTACX_site7083] | 9.06
AGTAACTAATTAAATGCATGTCGATATATATTATAT [TGCATGCA_site1038] | 9.35
TATATATATATATATACACACATATATACCTATATA [CACACA_site6085] | 9.31
TATAATGATAATAATAGTACACATTAGAACGGGAGG [XGTACX_site2563] | 9.67
TCTTTTTTTTATTATATCATTGAAATGTTAAAACGA [XGTACX_negctrl_site473] | 8.99
ATAATATTATTTAAAAGTACTAACAAAAGAATATTA [XGTACX_site4989] | 9.27
CCTATTATTTCTAAAACACACAAAAATATAAAAGAA [CACACA_site2708] | 9.47
TTTTGATAGAAGTGTTCTAGGAATTCAACTGTAATA [GTGCAC_negctrl_site585] | 8.95
TGAAAAAAAAAATACACACACGAGTTGTTATACATA [CACACA_site7486] | 9.67
ATTAAAAAAATTGGCACACATAAAAATATATAAAAA [CACACA_site2748] | 9.53
GTTTTTAATGTTTTGACATGCAATATTAAAAATAAT [TGCATGCA_site174] | 8.95
AACAGATATGAATAGAAAAAAAAAAATGGCCCATAT [TGCATGCA_negctrl_site443] | 9.26
GACCACTTTAGGATTTGTACACATATTATATATGCA [XGTACX_site6579] | 9.44
ATAAAAAAAAATAACACACAGACATAAGAATAAATA [CACACA_site4162] | 9.77

Sequence | gcPBM binding intensity (ln)
TAGCCATTTTTATATTGTACTTATATAATCACATTT [XGTACX_site4407] | 9.35
ATATAAGAAAAGCACACACACACAAAAAAAAAAAAA [CACACA_site2827] | 10.1
ATTAAAAAAAATATATATGTATAAAACAAGCAAAAT [XGTACX_negctrl_site474] | 9.69
AACATTATATATTGCAGTACTCCCATATGTTGATAA [XGTACX_site3119] | 9.26
ATATATATATATATATGTACACATAAAAAGAAAGAA [XGTACX_site1603] | 9.58
TTTAGTTGTGAGAATTGTACATATTTTCCTTTTACC [XGTACX_site7291] | 9.2
TATATACCTATATACACACACATATATTATAGATAT [CACACA_site6266] | 9.82
TATATATATGAACAATGTACGTATAATATTTTTATT [XGTACX_site7561] | 9.25
GATCTATACTATAATACACACATTTGATGAATGTAA [CACACA_site6163] | 9.34
AAAAAAATTAAAAATTAAAATTAAAAATAATATATA [GTGCAC_negctrl_site466] | 8.97
AATGTATAAATCCATACACACATAAATTTTAATAAT [CACACA_site2363] | 9.53
TAATTTCTTTAGGGGGTGCTTTTATAGTTTTTATTA | 10.1
TTCATAAAATGTGTCTGTACGTAAATGTATTACACT [XGTACX_site3179] | 9.22
CTGTCTGCAGATATGGTGCATTTGTAAGATCTTACA [GTGCAC_site9870] | 9.13
TTTATATTTATGATGGGTACACAAAATTTTACCCAT [XGTACX_site1504] | 8.93
ATATATATATATATATGTACATATGTTTGTTTCCGC [XGTACX_site5167] | 9.53
TTTTTTTTCATTTTATGTACACATAATTTAATATAT [XGTACX_site5768] | 9.34
CATACATACATACATACATGCATACATACATACATA [TGCATGCA_site218] | 9.45
CATAATTTAAAAAAGGTGCAAAATGGATAATATATA [GTGCAC_site9657] | 9.39
AAAAAGTGACTCCTTACACACTTTACATAATTTAGG [CACACA_site8176] | 9.42
ATATACATATATATATGTACTTATTTATTTATTTAT [XGTACX_site2532] | 9.36
GCAATTTTTTTTAAGAGTACTAATATATTATAGTGG [XGTACX_site7316] | 8.95

Sequence | gcPBM binding intensity (ln)
TTTTTTTAATAGTGTGCACACAATATACAGAAAAAA [CACACA_site8399] | 9.51
TAATTATATATATACACACACATACAGACAAATAAA [CACACA_site3412] | 10.1
GAAATTTGTTATTGCACACAAATTTTTCTTTTTTTA [CACACA_site2339] | 9.34
TCCTTTTTGAAATGTTGTACTTTTTTTATCTTTCAT [XGTACX_site953] | 9.48
TACCATATTTCTTCAAGTACGCATTATGTTAAAAAG [XGTACX_site345] | 9.06
TACATATATTTTTATACATGCATAACTTAGGACTTT [TGCATGCA_site113] | 9.05
ATATTTATATATATCATACACACTAATATGTATATT [CACACA_site3409] | 9.39
ATATATATATATAATTGTACATATAATATAATATTA [XGTACX_site5216] | 9.14
AACACATGCTTGGTCACACACGTATGCATATTTAAA [CACACA_site5206] | 9.52
AATATGTTATAAATATGTTATAAATAATAAATAAAT [GTGCAC_negctrl_site135] | 9.17
ATATATATTATATATAGTACTTTTTTGCGCAAATAT [XGTACX_site6849] | 9.15
TAAAAAAAAAAAAAAAGTACACACATACATATAAAT [XGTACX_site3752] | 9.81
ATTTTTTTTTTTTTATGTACATATAGGTGCAAATCA [XGTACX_site6748] | 8.95
ACAATGTCATTTGCTAGTACGCATATTGGTTGTAAA [XGTACX_site8924] | 9.15
TATTTTTTTTTTTTTTTTTTTTTAAAACATATCAAT [CACACA_negctrl_site925] | 8.93
ATTATGTGTCCACATGTAAGCTATCTTACTTATATA [CACACA_negctrl_site1227] | 9.29
CATATTTGTGGACACACACACATATTTATATATATA [CACACA_site5887] | 9.75
ATAGTTACACAATGGTGTACAAGTCAATATATTTCT [XGTACX_site4614] | 9.19
TACAAAAAAATAAAAAAAATTAAATAAATAAATATA [CACACA_negctrl_site45] | 9.06
AAAAAAAAAAAAAAAAAAAACGAAAAACATCAAAGA [TGCATGCA_negctrl_site78] | 9.4
TATCCTTATATTTGCACACACACACTAGAAAATGAA [CACACA_site4714] | 10
ACTAAAAAATATATATGTACATAATAATATATTATT [XGTACX_site1260] | 9.21
